According to paper PMC6101033 (Neuron, 2017):

Test system: CA1 pyramidal neurons (Schaffer collateral-CA1 synapses)
Test: LTP in hippocampal slices of 3xTG-AD mice
Settings: Y27632 1μM; fEPSC 55–60 min; p<0.001 vs 3xTG-AD

For `C[C@@H](N)[C@H]1CC[C@H](C(=O)Nc2ccncc2)CC1` [Y27632], the “LTP deficit in 3xTG-AD mice” value was “reverses LTP deficits in an AD mouse model”.
